Paper PMC4336329 (PLoS ONE, 2015)
Among all 310,000 compounds or so, about 14,000 (4.5%) showed an effect of 50% or more. Effects have a minus sign here. The list shows a part of the results.

target: human ether-à-go-go-related gene (hERG) potassium channel (human, UniProt Q12809); experiment: primary screen, population patch clamp on CHO cells stably expressing hERG
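Note: peak tail current of the secondary pulse compared with the same well before compound.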

Chain of human ether-à-go-go-related gene (hERG) potassium channel (Q12809 whole entry, looked up): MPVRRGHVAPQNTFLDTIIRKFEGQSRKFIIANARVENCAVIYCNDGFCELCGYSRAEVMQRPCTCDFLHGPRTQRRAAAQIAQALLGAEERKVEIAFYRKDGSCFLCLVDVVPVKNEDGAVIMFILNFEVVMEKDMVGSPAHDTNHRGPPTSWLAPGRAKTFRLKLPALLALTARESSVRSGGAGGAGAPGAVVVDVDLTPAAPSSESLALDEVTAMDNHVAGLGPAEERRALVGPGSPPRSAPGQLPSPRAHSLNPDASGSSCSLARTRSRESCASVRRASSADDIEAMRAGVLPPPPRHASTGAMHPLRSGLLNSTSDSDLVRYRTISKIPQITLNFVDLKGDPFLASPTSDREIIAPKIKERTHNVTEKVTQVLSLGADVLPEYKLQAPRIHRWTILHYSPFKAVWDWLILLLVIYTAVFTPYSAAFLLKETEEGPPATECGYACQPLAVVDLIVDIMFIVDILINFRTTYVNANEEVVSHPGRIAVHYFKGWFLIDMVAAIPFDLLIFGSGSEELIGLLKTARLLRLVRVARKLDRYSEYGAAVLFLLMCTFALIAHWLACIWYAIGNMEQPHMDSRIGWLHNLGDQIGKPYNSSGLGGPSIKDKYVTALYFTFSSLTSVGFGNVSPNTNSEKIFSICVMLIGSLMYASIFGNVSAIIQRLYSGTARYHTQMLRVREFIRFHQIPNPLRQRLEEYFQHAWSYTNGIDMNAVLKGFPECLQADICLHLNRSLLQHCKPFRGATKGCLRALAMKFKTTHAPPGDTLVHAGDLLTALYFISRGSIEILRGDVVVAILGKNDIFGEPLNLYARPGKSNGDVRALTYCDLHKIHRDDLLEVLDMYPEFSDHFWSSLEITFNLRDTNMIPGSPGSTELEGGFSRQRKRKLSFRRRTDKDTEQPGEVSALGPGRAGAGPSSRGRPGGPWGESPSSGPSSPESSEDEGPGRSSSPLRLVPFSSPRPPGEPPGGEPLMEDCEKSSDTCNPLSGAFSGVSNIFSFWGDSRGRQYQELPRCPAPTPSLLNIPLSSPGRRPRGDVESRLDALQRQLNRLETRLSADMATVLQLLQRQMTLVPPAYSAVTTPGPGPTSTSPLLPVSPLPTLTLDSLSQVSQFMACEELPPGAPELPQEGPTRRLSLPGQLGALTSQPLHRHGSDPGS

SMILES	hERG current change (%, negative = inhibition) at 10uM
CCCc1ccc(OCc2ccc(C(=O)N/N=C/c3cccnc3)o2)cc1	0.17%
CC1(C)Oc2nc3ccccc3n2/C1=C\C#N	-5.76%
CCC(=O)c1ccc(OCC(=O)OCC(=O)NCCC2=CCCCC2)cc1	11.7%
O=C1CCCCN1CC(=O)N1CCCC(Nc2ccc(F)cc2)C1 (centres unmarked)	4.75%
O=C(Nc1ccc(Cl)cc1Cl)NC1CCN(S(=O)(=O)c2ccc(F)cc2)CC1	17.8%
COc1cc(C(=O)NCc2ccc(S(N)(=O)=O)cc2)ccc1OCC(=O)N1CCOCC1	12.5%
COc1cc(/C=N/NC(=O)NC2CCCCC2)cc(OC)c1O	-7.87%
Cc1ccc(/C=N/Nc2nc(Cl)c(Cl)cc2Cl)s1	12.6%
Cc1c([N+](=O)[O-])c2ccc(O)cc2n1-c1ccccc1	9.18%
COC(=O)c1sc2nc(N3CCCCC3)c3c(c2c1N)CCCC3	24.6%
NS(=O)(=O)c1ccc(NC(=O)COC(=O)c2cc(Cl)ccc2[N+](=O)[O-])cc1	-4.94%
Cc1nc2ccccc2c2c(N)c3ccccc3n12	8.76%
CC(NS(=O)(=O)c1ccc(Cl)c(Cl)c1)C(=O)OCC(=O)N1CCCCCC1 (centres unmarked)	-32.4%
O=C(Nc1ccccc1)c1cc2ccc3ccccc3c2s1	16.8%
CCN(CCC#N)c1ccc(/C=N/Nc2nc(C)cc(=O)[nH]2)c(C)c1	6.77%
O=[N+]([O-])c1ccccc1SNc1ccccn1	1.54%
COc1ccc(NC(=O)COC(=O)C2CC2)c(OC)c1	-0.146%
Cc1nnc(SCC(=O)Nc2cc(S(C)(=O)=O)ccc2Cl)n1Cc1ccccc1	6.22%
CCc1nnc(NC(=O)CSc2nc3c(cc2C#N)CCCC3)s1	10.8%
O=C1c2cccc3cc([N+](=O)[O-])cc(c23)C(=O)N1c1ccccc1O	4.06%
CC12CCC(C/C1=N/OC(=O)c1cccc([N+](=O)[O-])c1)C2(C)C (centres unmarked)	22.4%
CCc1ccc(OCC(=O)N2CC(C(N)=O)Oc3ccccc32)cc1 (centres unmarked)	-38.8%

SMILES	hERG current change (%, negative = inhibition) at 10uM
CCN(CC)C(=O)c1cc(Cl)ccc1NC(=O)c1ccco1	-3.78%
O=C(Nc1cccnc1)c1ccc(S(=O)(=O)c2ccccc2)cc1	14.9%
O=c1cc(CN2CCc3ccccc3C2)nc2sccn12	-8.07%
Cc1ccccc1NC(=O)c1ccc2nccnc2c1	-9.3%
Cc1cccn2c(=O)c3cc(C(=O)NCC4CCCO4)c(=N)n(C4CCCC4)c3nc12 (centres unmarked)	-74.8%
Cc1ccc(NC(=O)CCN2C(=O)C3C4CCC(C4)C3C2=O)cc1[N+](=O)[O-] (centres unmarked)	-0.749%
Nc1ccc(C(=O)[O-])cc1.[K+]	17.1%
OCCSc1ncnc2c1oc1ccccc12	4.27%
COc1cc(S(=O)(=O)N2CCOCC2)cc(C(=O)OCC(=O)NC2CCCCC2)c1OC	3.92%
CCN(C(=O)CSc1ncnc2c1cnn2-c1ccccc1)C1CCS(=O)(=O)C1 (centres unmarked)	3.53%
COc1ccc(CNC(=O)C(C)NCc2ccc(S(N)(=O)=O)cc2)cc1 (centres unmarked)	7.7%
COc1ccc(C2(NC(C)=O)CCN(C(=O)c3cccs3)CC2)cc1	-15%
O=C(c1cc2ccc([N+](=O)[O-])cc2oc1=O)N1CCOCC1	-2.92%
CCOC(=O)c1sc(C)c2c1NC(c1ccc(N(C)C)cc1)NC2=O (centres unmarked)	3.62%
COc1ccc(NC(=O)NC(C)C2CC3CCC2C3)cc1 (centres unmarked)	5.11%
CCOc1ccc(CN2CCN(C(=O)c3cccc4ccccc34)CC2)cc1.O=C(O)C(=O)O	-23.4%
COC(=O)COc1ccc(S(=O)(=O)Nc2ccc(NC(C)=O)cc2)cc1C	19.8%
COc1cccc(CC2(CO)CCCN(Cc3ccc(-c4ccco4)cc3)C2)c1 (centres unmarked)	-3.75%
O=c1[nH]c2ccccc2nc1CCc1ccccc1	35.5%
CCCOc1cccc(-c2cc(C(=O)N/N=C/c3ccccn3)c3ccccc3n2)c1	0.224%
O=C(Oc1cccc2cccnc12)c1ccc(N2C(=O)C3C4CCC(C4)C3C2=O)cc1 (centres unmarked)	6.05%
COc1ccc(S(=O)(=O)N(C)CC(=O)N2CCOCC2)cc1	-10.4%
